The campaign covered roughly 420,000 compounds. About 64,000 (15%) were called active. The inconclusive results got no clear call from the source; some entries with a clear call stand among them for comparison. The call rests on the fitted dose curve; in most records, active means well fitted inhibition curve with a large enough effect; inconclusive means small, poorly fitted or top-dose-only effect; inactive means flat fitted curve, though single readings scatter. Potencies of inconclusive entries are left out as doubtful fits.
Assay: qHTS for Inhibitors of human tyrosyl-DNA phosphodiesterase 1 (TDP1): qHTS in cells in absence of CPT; further: nearly all actives have a fitted effect of over 55% in size
Details: DT40 Tdp1-/- hTDP1 cells, no CPT, ATP luminescence, 48 h; activity change, negative = growth inhibition: at 46.2 µM (top of the series) unless noted
Outline: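 Readout: luminescence from CellTiter-Glo after 30 min in the dark at RT. Cells: DT40 Tdp1-/- with stable hTDP1, 400/well. Exposure: compounds alone, ≥48 hr, 37 °C.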
On the % scale 0 is the no-effect control and ±100 the full control effect; potency means the concentration at half of the fitted maximal effect; tags describe the fitted curve by direction and shape.

Structure (SMILES)	Potency	activity change, negative = growth inhibition
C=CCNC(=S)NNC(=O)C(CCC(C)C)CC(C)(C)O (stereo unspecified)	inconclusive [inhibitor, single point]	–
Cc1nc(NCCCn2ccnc2)c2ccccc2n1	inconclusive [inhibitor, single point]	–
COc1ccc(OC)c(NC(=O)c2cc3oc4ccccc4c3cc2O)c1	active: 16.4 µM	–
CC(C)Cn1c(SCC(=O)N2CCOCC2)nc2ccccc2c1=O	inactive	–
CCOC(=O)c1cnc(-n2nc(C)cc2C)nc1Nc1ccc(C)cc1	active: 5.17 µM	–
O=C(CCNC(=O)c1ccc(Cl)cc1)Nc1ccc(Cl)cc1F	inactive	–
CCc1ccccc1NC(=O)CNC(=O)CCc1nc2sc3c(c2c(=O)[nH]1)CCCC3	inactive	–
O=S(=O)(c1c(Cl)cc(Br)cc1Cl)N1CCN(C(=S)NC2CC2)CC1	inconclusive [inhibitor, single point]	–
O=C(COC(=O)c1ccccc1OC(F)F)Nc1ccc2[nH]c(=O)[nH]c2c1	inactive	–
N#Cc1ccccc1CSc1nnc(Cc2ccccc2)o1	inactive	–
O=C(NCCc1ccc(Cl)cc1)c1nnc(Cc2ccc(Cl)cc2Cl)o1	inactive	–
CCC(c1nnnn1Cc1ccco1)N1CCN(c2cc(Cl)ccc2C)CC1 (stereo unspecified)	inconclusive [inhibitor, single point]	–
C[C@@H]1CN([C@@H](C)CO)C(=O)c2cccc(NS(=O)(=O)c3cccs3)c2O[C@H]1CN(C)Cc1ccc(C(F)(F)F)cc1	inconclusive [inhibitor, single point]	–
Cc1cccc2nc(-c3ccco3)c(Nc3ccc4c(c3)OCCO4)n12	–	inconclusive: -34.6% [inhibitor]
CCOC(=O)c1c(NC(=S)N2CCCCC2)sc2c1CCN(C(=O)OCC)C2	inconclusive [inhibitor, single point]	–
CN(CC(=O)Nc1ccc(OC(F)(F)F)cc1)C(=O)C1CCC1	inconclusive [inhibitor, single point]	–
Cc1ccccc1C1NC(=O)c2ccccc2O1 (stereo unspecified)	inactive	–
CC(C)Cn1c(-c2ccccc2Cl)nc2ccccc21	active: 16.4 µM	–
COc1ccccc1S(=O)(=O)c1c(C)cc(C)[nH]c1=O	inactive	–
COc1ccc(-c2cc(C(F)(F)F)c(C#N)c(SCC(=O)Nc3nc(C)co3)n2)cc1	inconclusive [inhibitor, partial curve, poor fit]	–
NNC(=O)C=C1CCN(c2ncc(C(F)(F)F)cc2Cl)CC1	inconclusive [inhibitor, single point]	–
COc1ccccc1N=c1oc2cc(O)ccc2cc1C(=O)NCC1CCCO1 (stereo unspecified)	inconclusive [inhibitor, partial curve]	–
CC1(C)CC(=O)c2cc(NC(=O)c3ccccc3)c(=O)oc2C1	inconclusive [inhibitor, single point]	–
Cc1cccc(N2CCN(C(=O)Cc3ccc(-n4c(=O)[nH]c5ccsc5c4=O)cc3)CC2C)c1 (stereo unspecified)	inconclusive [inhibitor, single point]	–

Structure (SMILES)	Potency	activity change, negative = growth inhibition
O=C(CCN1CCN(CCO)CC1)Nc1ccc(C2CCCC2)cc1	inconclusive [inhibitor, single point]	–
O=C(COc1ccc(Cl)cc1Cl)NN=C1c2ccccc2-c2ccccc21	inconclusive [inhibitor, single point]	–
Cc1cc(Cl)c2oc(C(=O)N(C)CCCCN3CCOCC3)c(C)c2c1	inconclusive [inhibitor, single point]	–
O=C(NCCc1ccccc1)c1ccccc1C(F)(F)F	inactive	–
O=C(c1ccsc1)N1CCCC(N2CCN(c3cccc(C(F)(F)F)c3)CC2)C1 (stereo unspecified)	inconclusive [inhibitor, single point]	–
COc1ccc(N(CC(=O)NCCc2ccc(C)cc2)S(=O)(=O)c2c(C)nn(C)c2C)cc1	inconclusive [inhibitor, single point]	–
CCCn1c(N)c(C(=O)CSc2nnc(C3CC3)n2-c2ccccc2)c(=O)[nH]c1=O	inconclusive [inhibitor, single point]	–
O=C(CSc1nncn2c1cc1occc12)Nc1ccc(F)c(Cl)c1	inconclusive [inhibitor, partial curve]	–
CCN(CC)c1ccc(S(=O)(=O)N2CCOCC2)cc1NC(=O)CNCc1ccccc1	active: 20.6 µM	–
O=C(NCCc1ccc(Cl)cc1)c1ccc2nc(CCc3ccccc3)oc2c1	inconclusive [inhibitor, single point]	–
CCCCCCC(=O)Nc1ccc(Cl)cn1	inconclusive [inhibitor, partial curve, poor fit]	–
CC(C)=C1C2CCC1C1C(=O)N(NC(=O)COc3ccc(C(C)(C)C)cc3)C(=O)C21 (stereo unspecified)	inconclusive [inhibitor, single point]	–
Cc1cc(OC(C)C(=O)NCC2CCC(C(=O)O)CC2)c2c(C)cc(=O)oc2c1 (stereo unspecified)	inactive	–
Cc1cc(C)c(NC(=O)CN)c(C)c1	inactive	–
COc1ccc(CN2CCN(C(=O)CN3C(=O)C4C5C=CC(C5)C4C3=O)CC2)c(OC)c1OC (stereo unspecified)	inconclusive [inhibitor, single point]	–
O=C(CCC1CCCN(C(=O)c2ccc(F)c(F)c2)C1)N1CCN(c2ccccn2)CC1 (stereo unspecified)	active: 18.4 µM	–
O=C(CSc1ccc(Cl)cc1)NC1CCCc2ccccc21 (stereo unspecified)	inactive	–
C/C(=N\NC(=O)C1COc2ccccc2O1)c1cc2ccccc2o1 (stereo unspecified)	inactive	–
CN(C)CCCN1c2ccccc2C(C)(C)c2ccccc21	inconclusive [inhibitor, single point]	–
COc1ccccc1CNC(=O)COC(=O)c1c[nH]c2ccccc12	inconclusive [inhibitor, single point]	–
COc1ccc(NC(=O)[C@@H]2CCCN2S(=O)(=O)c2ccc(Cl)cc2)cc1	inconclusive [inhibitor, single point]	–
C[C@H](CO)N1C[C@H](C)[C@@H](CN(C)Cc2ccncc2)OCc2cnnn2CCCC1=O	inactive	–
CCOc1ncccc1C(=O)Nc1cc(C(F)(F)F)ccc1N1CCOCC1	inconclusive [inhibitor, partial curve, poor fit]	–
Cc1cc(=O)n2[nH]cc(-c3ccccc3)c2n1	inconclusive [inhibitor, single point]	–

Structure (SMILES)	Potency	activity change, negative = growth inhibition
O=P(O)(O)CCP(=O)(c1ccccc1)c1ccccc1	inactive	–
CC(=O)Nc1ccccc1NC(=O)c1ccc(C)c(C)c1	inactive	–
CCc1nnc(NC(=O)CCCSc2nc3ccccc3[nH]2)s1	inactive	–
Cn1nccc1-c1coc2c(C(=O)NCc3ccccc3)cccc12	inconclusive [inhibitor, single point]	–
Cc1ccc(NC(=S)N/N=C/c2c(C)[nH]c3ccccc23)cc1	active: 29.1 µM	–
S=C(Nc1ccc(Br)cc1)N1CCn2cccc2C1c1cccnc1 (stereo unspecified)	inconclusive [inhibitor, single point]	–
COc1ccc(-c2cc(C(=O)NCC3CCCO3)c3ccccc3n2)c(OC)c1 (stereo unspecified)	inconclusive [inhibitor, single point]	–
COc1ccc(C(=O)CSc2n[nH]c(=O)n2Cc2ccco2)cc1	–	inconclusive: -30.5% [inhibitor]
COc1ccc2c(c1)C(=O)N1[C@H]3c4cc(Cl)ccc4OC[C@@H]3[C@H](c3ccccc3)[C@]1(C)C(=O)N2	inconclusive [inhibitor, single point]	–
COc1ccccc1N1CCN(C(=O)CSc2ncccc2-c2nc3ccccc3[nH]2)CC1	inconclusive [inhibitor, single point]	–
O=C(Nc1ccc2ccccc2c1)c1cnccn1	inactive	–
COc1cc([C@@H]2[C@H]3CNCC=C3C(C#N)=C(N)C2(C#N)C#N)ccc1OC(C)C	inconclusive [inhibitor, partial curve]	–
Oc1c(Br)cc(Br)cc1C=Nc1cccc2ncccc12	inconclusive [inhibitor, partial curve]	–
CCc1nn2c(NCCCO)cc(C)nc2c1-c1ccc(F)cc1	inconclusive [inhibitor, single point]	–
Cc1cccc(NC(=O)CCS(=O)(=O)c2cccc3nonc23)c1C	–	inconclusive: -31.1% [inhibitor]
CC(C)Cn1nc(C(=O)Nc2nnc(C3CC3)s2)c2ccccc2c1=O	inconclusive [inhibitor, single point]	–
COc1cc(Nc2nn(-c3ccc(OC(F)(F)F)cc3)nc2C(C)=O)cc(OC)c1	inactive	–
O=C(NC1=NCCS1)C1CCN(S(=O)(=O)c2ccc(Cl)cc2)CC1	inconclusive [inhibitor, single point]	–
COc1cc2c(cc1NC(=O)CCCCCN1C(=O)CCC1=O)oc1ccccc12	inconclusive [inhibitor, single point]	–
CCCCC1CC(=O)NC1(C(=O)OCC)C(=O)OCC (stereo unspecified)	inactive	–
COc1cc(CNc2nc(C)c(-c3ccn(C4Cc5ccccc5C4)n3)s2)cc2c1OCO2	inconclusive [inhibitor, single point]	–
COC(=O)c1c(C(=O)OC)c2c(-c3ccccc3)cc3cccc1n32	inconclusive [inhibitor, single point]	–
CC1(C)CC(=O)C=C(Nc2ccc(OCC(F)(F)C(F)F)cc2)C1	inconclusive [inhibitor, single point]	–
